Experiment in all cases: two-hybrid; Gal4 DNA-binding domain (pGBD) and activation domain (pGAD) fusions in S. cerevisiae pJ69-4a; growth on SD His- and Ade-deficient plates, 30°C, 4-5 days
Assay [1] addresses T1, RecG R95A Gal4 hybrid (E. coli) (UniProt P24230).
T1 sequence: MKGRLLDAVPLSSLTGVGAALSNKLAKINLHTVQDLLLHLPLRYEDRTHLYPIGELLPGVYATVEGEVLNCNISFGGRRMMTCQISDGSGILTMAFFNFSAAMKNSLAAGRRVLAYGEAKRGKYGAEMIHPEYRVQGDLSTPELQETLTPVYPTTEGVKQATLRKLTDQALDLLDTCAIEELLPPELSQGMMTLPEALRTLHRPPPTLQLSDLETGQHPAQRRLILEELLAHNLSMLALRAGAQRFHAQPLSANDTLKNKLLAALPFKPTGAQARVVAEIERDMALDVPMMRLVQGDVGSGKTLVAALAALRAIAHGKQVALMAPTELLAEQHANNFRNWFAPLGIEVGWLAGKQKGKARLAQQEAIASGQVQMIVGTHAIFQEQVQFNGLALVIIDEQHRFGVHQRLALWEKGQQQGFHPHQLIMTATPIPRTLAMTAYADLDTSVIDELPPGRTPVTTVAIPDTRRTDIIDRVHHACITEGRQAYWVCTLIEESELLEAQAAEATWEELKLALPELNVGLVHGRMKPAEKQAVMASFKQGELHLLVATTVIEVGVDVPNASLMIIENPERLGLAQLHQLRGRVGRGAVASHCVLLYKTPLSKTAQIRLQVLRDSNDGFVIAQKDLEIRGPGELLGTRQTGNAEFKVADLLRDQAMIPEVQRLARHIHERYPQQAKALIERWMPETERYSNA

Protein sequences, listed by entry. Tags and fused reporters are not part of them.
UniProt P0AGE0: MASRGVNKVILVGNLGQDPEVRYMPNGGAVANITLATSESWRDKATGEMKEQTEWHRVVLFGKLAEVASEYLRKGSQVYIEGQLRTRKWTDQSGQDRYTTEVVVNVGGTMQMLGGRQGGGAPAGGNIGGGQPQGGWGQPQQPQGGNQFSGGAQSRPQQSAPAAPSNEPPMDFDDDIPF

In assay [2] the target is T2, RecG R614E Gal4 hybrid (E. coli) (UniProt P24230).
T2 sequence: T1 sequence with A95R, R614E

Assay [3] concerns the target T3, RecG Gal4 hybrid, wildtype (E. coli) (UniProt P24230).
T3 sequence: T1 sequence with A95R

Substitutions are numbered along the chain they refer to. No constants are given. Whether binding was seen depends on the method and setting. Some binding calls cover weakened binding; strength is not graded here.

“SSB Gal4 hybrid (from UniProt P0AGE0 1-178)”: the binding entry is “binds” in assay [1], “no binding” in assay [2] and “binds” in assay [3].

Source of the values: publication PMC10164576, “Interaction with the carboxy-terminal tip of SSB is critical for RecG function in E. coli” (Nucleic Acids Research, 2023).
